# PubChem BioAssay AID485344 (National Center for Advancing Translational Sciences (NCATS), 2010)
# The campaign covered roughly 340,000 compounds. About 6,900 (2%) were called active. No stated cut-off is given here; in the data, active means inhibition above about 30%; inactive means below that, where a call was filed. The entries are a selection whose mix differs from that of the whole data set. Entries without a call were filed so in the source.
# Biological target: D(2) dopamine receptor (Homo sapiens) (UniProt P14416)
# Test: HTS Assay for Allosteric Antagonists of the Human D2 Dopamine Receptor: Primary Screen for Antagonists; further: 0% is about no effect
# Settings: HEK293 TREx D2 cells, calcium flux, dopamine EC80; at 10 µM; stronger effect = higher value
# How it was run: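 Measurement of antagonist activity uses fluorescent calcium dye in inducible HEK293 T-REx D2 cells: 10 s baseline, compound addition with 180 s read, EC80 dopamine addition with a further 180 s read.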
# UniProt P14416, sequence (P14416 whole entry, looked up): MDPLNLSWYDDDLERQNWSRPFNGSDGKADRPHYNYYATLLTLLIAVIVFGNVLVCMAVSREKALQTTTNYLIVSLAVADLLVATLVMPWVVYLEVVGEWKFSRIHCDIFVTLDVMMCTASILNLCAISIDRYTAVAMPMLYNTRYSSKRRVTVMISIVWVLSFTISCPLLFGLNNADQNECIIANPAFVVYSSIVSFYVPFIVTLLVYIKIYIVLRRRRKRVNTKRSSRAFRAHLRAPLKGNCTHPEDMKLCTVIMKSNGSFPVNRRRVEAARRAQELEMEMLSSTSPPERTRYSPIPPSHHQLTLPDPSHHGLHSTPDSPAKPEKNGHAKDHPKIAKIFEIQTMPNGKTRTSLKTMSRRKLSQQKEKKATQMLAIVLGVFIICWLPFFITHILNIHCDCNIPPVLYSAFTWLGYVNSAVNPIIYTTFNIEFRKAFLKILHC
row,Structure (SMILES),inhibition
1,CCCn1ccc2c(OCC(=O)Nc3ccc(OC)c(OC)c3)cccc2c1=O,8.51%
2,O=C(NCCc1ccc(F)cc1)C(=O)NCC(c1cccs1)S(=O)(=O)c1ccccc1 (stereo unspecified),8.45%
3,COc1ccccc1CNC(=O)c1ccc(CSc2nc3ccncc3n2Cc2cccc(F)c2)cc1,12.6%
4,Cc1ccc(CNC(=O)C(C)n2c(=O)cc(-c3ccccc3)c3c(C)nn(C)c32)cc1 (stereo unspecified),6.03%
5,Cc1ccc2nc(-c3c[nH]c4ccccc34)c(Nc3ccc(F)cc3)n2c1,12.6%
6,O=C(CCS(=O)(=O)c1cccc2nonc12)Nc1ccc(F)cc1F,3.33%
7,COc1ccc(Br)cc1CNC(=O)Cn1ncn2nc(-c3cccs3)cc2c1=O,21.6%
8,Cc1oc(-c2ccccc2Cl)nc1CSc1nncn2c1cc1occc12,-2.4%
9,COc1ccccc1N1CCN(C(=O)c2ccc3c(c2)CCN3S(=O)(=O)c2ccccc2)CC1,12.6%
10,CCc1c(C)nc2nc(-c3ccccc3)nn2c1NCc1ccc(C)cc1,-4.34%
11,COc1cccc2[nH]c(C(=O)NCc3ccc4c(c3)CCN4C(=O)c3ccc(F)cc3)cc12,3.88%
12,COc1ccc(CNC(=O)c2ccc(-c3nc(CS(=O)c4ccc(C)cc4)c(C)o3)cc2)cc1 (stereo unspecified),1.52%
13,COc1ccc2c(c1)c(=O)c(C(=O)c1ccc(Cl)cc1)cn2CC(=O)Nc1ccc2c(c1)OCCO2,19.1%
14,Cc1oc2ccc(O)c(CN3CCCC(C)C3)c2c1C(=O)Nc1ccccc1 (stereo unspecified),-1.42%
15,O=C1CC2(CCCC2)CC(=O)N1CCCCN1CCN(c2ncccn2)CC1,active: 87.9%
16,O=C(CSc1cn(CCNC(=O)c2c(F)cccc2F)c2ccccc12)Nc1ccccc1F,-3.38%
17,COc1ccc(Cn2c(CCC(=O)Nc3ccccc3OC)nc3cccnc32)cc1,-8.45%
18,CC(=O)Nc1ccc(NC(=O)C2Cc3ccccc3N2C(=O)c2ccccc2)cc1 (stereo unspecified),12.8%
19,Cc1ccc(OC(=O)CSc2nnc(-c3cccs3)o2)c(C)c1,10.2%
20,CC1=C(C(=O)OC2CCCCCC2)C(c2ccc(Cl)cc2)CC(=O)N1 (stereo unspecified),10.4%
21,COc1ccc(Cl)cc1C(=O)NCc1nc(-c2cccc(C)c2)no1,13.3%
22,O=C(c1ccc([N+](=O)[O-])cc1)N1c2ncnn2C2(CCCCC2)[C@@H]2CCCC[C@@H]21,3.97%
23,Cc1cc(C)c(NC(=O)Cc2ccc(-n3c(C)nc4cccnc43)cc2)c(C)c1,-6.04%
24,CCOc1cc(C2C(C(=O)OC)=C(C)NC3=C2C(=O)c2ccccc23)cc(Br)c1OCC (stereo unspecified),-8.14%

row,Structure (SMILES),inhibition
1,Cc1ccc(-c2nc3c(c(SCC(=O)Nc4cccc(C(=O)O)c4)n2)Cc2cccc(C)c2O3)cc1,-0.959%
2,CCCc1cc(=O)[nH]c(SCC(=O)NC(=O)NC2CCCC2)n1,active: 32.1%
3,CCN(CC)CCNC(=O)c1ccc2c(=O)n3nc(Nc4ccccc4)sc3nc2c1,-11%
4,CC1=C(C(=O)Nc2cccc(C(F)(F)F)c2)C2(CCN(C(C)C)CC2)OC1=O,-6.41%
5,COc1ccc(-c2nc3ccccc3o2)cc1NC(=O)c1ccc(-c2cccc(Cl)c2C)o1,-0.719%
6,Cc1ccc(Cl)cc1N1CCN(C(=O)COCc2cc(-c3ccc4c(c3)OCO4)on2)CC1,5.02%
7,Cc1c(-c2nc(-c3ccc4c(c3)OCO4)no2)nnn1-c1cccc(C(F)(F)F)c1,13.8%
8,COc1cccc(NC(=O)C2CCN(c3nnc(-n4c(C)ccc4C)s3)CC2)c1,2.58%
9,COc1ccccc1NC(=O)NCc1ccc2c(c1)OCO2,active: 32.6%
10,CSCCC(NC(=O)c1ccco1)C(=O)OC(C)C(=O)NC(=O)NC1CCCCC1 (stereo unspecified),active: 49.3%
11,COc1ccc(CCNC(=O)CCn2c(=O)c3ccccc3n(Cc3ccccc3C)c2=O)cc1OC,-10.1%
12,O=C(Nc1ccc(OC(F)(F)F)cc1)C1CC(=O)N(Cc2ccco2)C1 (stereo unspecified),active: 47.3%
13,CCCNC(=O)CSc1cn(CC(=O)N2CCCCCC2)c2ccccc12,11%
14,CCOc1ccc(-c2nnc(SCC(=O)Nc3cccc(Cl)c3C)o2)cc1,11.7%
15,O=C(CSc1nc2sc3c(c2c(=O)[nH]1)CCCC3)Nc1ccccc1F,-14.5%
16,Cc1ccc(NC(=O)CCn2cnc3onc(-c4ccc(F)cc4)c3c2=O)c(Br)c1,7.26%
17,CC(C)Oc1ccc(CNS(=O)(=O)c2ccc(-c3cc(C(F)(F)F)on3)s2)cc1,6.68%
18,Cc1ccc2nc(CN3CCN(S(=O)(=O)c4ccc(F)cc4)CC3)oc2c1,2.92%
19,Cc1ccc2oc(C(=O)Nc3ccc(S(=O)(=O)Nc4nc(C)cc(C)n4)cc3)cc(=O)c2c1,14.1%
20,COc1ccc(NC(=O)C2CCCN2S(=O)(=O)c2ccc(F)cc2)cc1 (stereo unspecified),active: 30.4%
21,Cc1ccc(C(C)C)cc1NC(=O)Nc1ccc([N+](=O)[O-])cc1,active: 37.4%
22,CCOc1ccc(Nc2c3c(nc4nncn24)CCC3)cc1,15.8%
23,O=C(NCCc1ccccc1)c1cc(-c2ccc(Cl)c(Cl)c2)on1,-9.45%
24,Cc1c(CC(=O)NCc2ccccc2Cl)c(=O)oc2cc(O)ccc12,18.1%

row,Structure (SMILES),inhibition
1,COc1cc(OC)cc(N2C(=O)CSC23C(=O)Nc2ccccc23)c1 (stereo unspecified),5.03%
2,COc1ccc(C(=O)OCc2cc(=O)n3nc(C4CC4)sc3n2)cc1OC,-3.9%
3,O=C(Nc1ccc(C(=O)OCc2cc(=O)n3c4c(sc3n2)CCCC4)cc1)c1cccc(F)c1,-14.2%
4,Cc1cccc(C(=O)Nc2ccccc2OCc2cc(=O)n3c(C)csc3n2)c1,-3.26%
5,COc1ccc(CCNc2nc3c(c(=O)n(C)c(=O)n3C)n2Cc2ccccc2Cl)cc1OC,1.61%
6,O=C(Cn1cc(S(=O)(=O)Cc2ccccc2F)c2ccccc21)NCc1ccccc1,20.4%
7,Cc1csc2nc(-c3cccc(NC(=O)c4c(F)cccc4F)c3)cn12,12%
8,CN1C(=O)c2ccccc2Sc2ccc(NC(=O)c3ccc(C#N)cc3)cc21,-14.8%
9,COC(=O)C(CCSC)NC(=O)c1cc2c(n(-c3ccccc3)c1=O)CC(C)(C)CC2=O (stereo unspecified),16.4%
10,COc1ccc(-c2cc(C(=O)Nc3c(C)n(C)n(-c4ccccc4)c3=O)no2)cc1,19.2%
11,Cc1cc2oc(C(=O)Nc3c(C)n(C)n(-c4ccccc4)c3=O)cc(=O)c2cc1C,3.67%
12,CCOC(=O)Cn1c(=O)n(-c2ccc(Cl)cc2)c2nc(-c3ccc(Cl)cc3)nc(C(N)=O)c21,-1.04%
13,O=C(NCCCc1nc2ccccc2n1Cc1ccccc1F)c1ccco1,-3.19%
14,COc1cc(CNc2ccc3[nH]c(=O)[nH]c3c2)cc(Cl)c1OCc1ccc(F)cc1,5.87%
15,COc1ccc(NC(=O)CN(c2ccc(C)cc2)S(=O)(=O)c2cccs2)cc1,-11.2%
16,Cc1nn(C(C)(C)C)c(OC(=O)c2c(F)cccc2F)c1Sc1ccccc1,-12.9%
17,O=C(Nc1ccc(S(=O)(=O)N(Cc2ccccc2)c2ccccc2)cc1)c1ccc(F)cc1,-1.31%
18,O=C(CCCn1c(=O)c2ccccc2n(Cc2cccc(F)c2)c1=O)NCc1ccccc1Cl,8.81%
19,O=C(CCc1ccccc1)N1CCc2c([nH]c3ccccc23)C1c1ccc(F)cc1 (stereo unspecified),-3.36%
20,CCCCNC(=O)c1sc2ncccc2c1-n1cccc1,13.8%
21,O=C(c1ccc(Br)o1)N1CCN(CCOc2ccccc2)CC1,active: 86.3%
22,COC(=O)c1ccc(OC)c(CN2C(=O)N(c3ccc(C(C)=O)cc3)S(=O)(=O)c3ccccc32)c1,-12.5%
23,Cc1ccc(CNCc2c(C(=O)O)n(Cc3ccc(C)cc3)c3cc(C)ccc23)cc1,9.43%
24,CCOC(=O)c1c(C)[nH]c(CCC(=O)Nc2ccc(Cl)cc2C)c1C,-2.18%

row,Structure (SMILES),inhibition
1,COc1ccc(-c2noc(CNS(=O)(=O)c3ccc(Br)cc3)n2)cc1OC,-6.46%
2,Cc1ccc(-c2noc(CN(C(=O)COc3cc(C)cc(C)c3C)C(C)C)n2)cc1,-4.75%
3,Cc1cc(C)cc(NC(=O)CSc2nnc(-c3cc4occc4n3C)n2-c2ccccc2C)c1,15.8%
4,O=S(=O)(NCCc1csc2nc(-c3ccccc3)nn12)c1ccc(Cl)s1,1.33%
5,COc1ccc2c(CNC3CCCCCC3)c(C(=O)O)n(Cc3cccc(F)c3)c2c1,-2.93%
6,Cc1ccc(S(=O)(=O)N(C)C)cc1NC(=S)NC(C)CCCC(C)C (stereo unspecified),active: 74.9%
7,CCN(CC)CCSc1nnc2c3cc(F)ccc3n(C)c2n1,2.74%
8,CCCCNC(=O)C1CCN(S(=O)(=O)c2ccc3c(ccn3CC)c2)CC1,25.1%
9,CC(C)NC(=O)C1CCN(C(=O)c2cc3sccc3n2Cc2ccc(Cl)cc2)CC1,2.07%
10,Cc1cc(C)c(NC(=O)c2ncoc2-c2ccco2)c(C)c1,3%
11,Cn1c(=O)c2c(c3ccccc31)OC(=O)CC2c1cccc(F)c1 (stereo unspecified),-19.1%
12,CCOc1ccc(NC(=O)c2cc3c(=O)n(Cc4cccs4)ccc3nc2C)cc1,0.366%
13,O=C(Nc1ccc(Cl)cc1)N1CCN(c2ccc3nnc(-c4ccccc4)n3n2)CC1,4.55%
14,Cc1cccc(C(=O)NNC(=O)CSc2nnc(C(C)C)n2C)c1,active: 41.8%
15,COc1ccccc1N(CC(=O)NCCSCc1cccc(Cl)c1)S(C)(=O)=O,-16.9%
16,O=C(C1CCC(Cn2c(=O)c3sccc3n(Cc3ccccc3F)c2=O)CC1)N1CCCCC1 (stereo unspecified),-15%
17,COc1ccccc1CNC(=O)c1cnc(N2CCCC2)nc1C,5.97%
18,CCCOC(=O)c1ccc(Cn2nnc3sc4c(c3c2=O)CCC(C)C4)cc1 (stereo unspecified),3.82%
19,CCOc1ccc(NC(=O)c2cc(S(=O)(=O)N3CCOCC3)ccc2F)cc1,26.4%
20,CC1CCN(c2oc(/C=C/c3ccc(F)cc3)nc2C#N)CC1,-5.61%
21,CCOc1ccc(-c2nc(Cn3c(=O)cc(C)c4c(C)nn(-c5ccc(C)cc5)c43)c(C)o2)cc1,8.97%
22,CCc1c(C)sc2c1CCN(C(=O)Nc1ccc(F)c(Cl)c1)C2c1ccc(F)cc1 (stereo unspecified),20.5%
23,COc1ccccc1NC(=O)C1=C(C)Nc2nc(SCc3ccccc3)nn2C1c1cccnc1 (stereo unspecified),6.09%
24,O=C(Nc1ccccc1)C1CCN(S(=O)(=O)c2ccc3[nH]c4c(c3c2)CCCCC4)CC1,6.81%
